According to paper PMC10046941:
No constants are given. Whether binding was seen depends on the method and setting. Binding seen in cells or lysates may run through a third protein. Some binding calls cover weakened binding; strength is not graded here. Blank lines part the entries; values can stand above or below the substance they belong to.

By UniProt entry, the sequences of proteins in these tests, tags left out. Where a name states a change or a piece, a line headed by the entry shows the natural chain unless it says otherwise. Chains listed by the source or under a name are the forms on record and can include a tag or linker. Residues count along the entry.
UniProt P10923: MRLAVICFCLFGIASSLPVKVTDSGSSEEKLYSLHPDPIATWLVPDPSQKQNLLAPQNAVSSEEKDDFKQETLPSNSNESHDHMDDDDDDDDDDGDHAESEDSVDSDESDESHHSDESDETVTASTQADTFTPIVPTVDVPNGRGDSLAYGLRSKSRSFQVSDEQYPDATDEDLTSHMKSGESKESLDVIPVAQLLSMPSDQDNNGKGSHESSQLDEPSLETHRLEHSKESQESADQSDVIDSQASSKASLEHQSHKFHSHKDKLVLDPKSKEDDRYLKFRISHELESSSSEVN
osteopontin (OPN), endogenous in BV-2 cells (mouse (endogenous in BV-2)): residues 17-294 of P10923
N-terminal fragment of OPN (Met1-Gly151), Flag-tagged: residues 17-151 of P10923
C-terminal fragment of OPN (Leu152-Asn294), Flag-tagged: residues 152-294 of P10923
UniProt P16110: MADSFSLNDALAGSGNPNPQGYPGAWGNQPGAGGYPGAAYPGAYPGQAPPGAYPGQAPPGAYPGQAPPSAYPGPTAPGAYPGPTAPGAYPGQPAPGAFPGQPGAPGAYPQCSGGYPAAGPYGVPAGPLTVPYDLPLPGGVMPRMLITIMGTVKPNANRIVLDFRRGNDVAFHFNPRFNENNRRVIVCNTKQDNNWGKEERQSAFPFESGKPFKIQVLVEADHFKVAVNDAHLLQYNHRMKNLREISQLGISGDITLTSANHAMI

Key:
[1] = biological target: C-terminal fragment of OPN (Leu152-Asn294), Flag-tagged (UniProt P10923); assay: co-IP; HEK293T cells with plasmids of GAL-3 and OPN-WT-Flag, OPN-N-Flag or OPN-C-Flag; Western blot; precipitating antibody not told for this experiment
[2] = biological target: N-terminal fragment of OPN (Met1-Gly151), Flag-tagged (UniProt P10923); assay: as above
wild-type OPN-Flag = wild-type OPN-Flag (UniProt P10923); assay: as above
[3] = biological target: OPN protein translated in vitro (UniProt P10923); assay: co-IP; OPN and GAL-3 translated in vitro (TnT T7 Coupled Reticulocyte Lysate Systems), products combined, then the same co-IP procedure as for cell lysates
[4] = biological target: osteopontin (OPN), endogenous in BV-2 cells (mouse (endogenous in BV-2)) (UniProt P10923); assay: co-IP; whole-cell lysates of BV-2 cells treated with OGD for 3 h; protein A + G agarose beads with antibody against OPN, 4 °C overnight; IgG of the same species as negative control; Western blot

binding [1]: binds
binding [2]: no binding
binding (wild-type OPN-Flag): binds
Substance: GAL-3 expressed from a plasmid in HEK293T cells (from UniProt P16110 1-264)

binding [3]: binds
Substance: GAL-3 protein translated in vitro (from UniProt P16110 1-264)

binding [4]: binds
Substance: galectin-3 (GAL-3), endogenous in BV-2 cells (from UniProt P16110 1-264)
